The list shows a part of the results.
Legend:
Test in all cases: glycan array binding signal (z-score within array); higher = stronger binding
Settings in all cases: glycan notation: IUPAC condensed, linker removed
[1] = target: GlcNAc(a1-3)Gal(b1-4)GlcNAc
In short: (§1)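 Glycan array data were curated from 3228 arrays in the Consortium for Functional Glycomics database and kept only where the protein sequence was available. Glycan names were converted to IUPAC-condensed notation, and columns mapping to the same glycan were averaged. The binding signal is a within-array Z-score, averaged across arrays of the same protein sequence at different concentrations or buffers and across linkers. Negative Z-scores can be read as non-binding.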

[2] = target: GlcNAc(a1-6)Gal(b1-4)GlcNAc
In short: as §1

[3] = target: GlcNAc(b1-2)Gal(b1-3)GalNAc
In short: as §1

[4] = target: GlcNAc(b1-2)Man(a1-3)[GlcNAc(b1-2)Man(a1-6)]Man(b1-4)GlcNAc(b1-4)GlcNAc
In short: as §1

[5] = target: GlcNAc(b1-3)Gal
In short: as §1

[6] = target: GlcNAc(b1-3)Gal(b1-3)GalNAc
In short: as §1

[7] = target: GlcNAc(b1-3)Gal(b1-4)Glc
In short: as §1

[8] = target: GlcNAc(b1-3)Gal(b1-4)GlcNAc
In short: as §1

[9] = target: GlcNAc(b1-3)Gal(b1-4)GlcNAc(b1-3)Gal(b1-4)GlcNAc
In short: as §1

[10] = target: GlcNAc(b1-3)GalNAc
In short: as §1

[11] = target: GlcNAc(b1-3)[GlcNAc(b1-6)]Gal(b1-4)GlcNAc
In short: as §1

[12] = target: GlcNAc(b1-3)[GlcNAc(b1-6)]GalNAc
In short: as §1

[13] = target: GlcNAc(b1-3)[GlcNAc(b1-6)]GlcNAc(b1-4)GlcNAc
In short: as §1

[14] = target: GlcNAc(b1-4)Gal(b1-4)GlcNAc
In short: as §1

[15] = target: GlcNAc(b1-4)GlcNAc(b1-4)GlcNAc
In short: as §1

[16] = target: GlcNAc(b1-4)GlcNAc(b1-4)GlcNAc(b1-4)GlcNAc(b1-4)GlcNAc
In short: as §1

[17] = target: GlcNAc(b1-4)GlcNAc(b1-4)GlcNAc(b1-4)GlcNAc(b1-4)GlcNAc(b1-4)GlcNAc
In short: as §1

[18] = target: GlcNAc(b1-4)[GlcNAc(b1-6)]GalNAc
In short: as §1

[19] = target: GlcNAc(b1-6)Gal(b1-4)GlcNAc
In short: as §1

[20] = target: GlcNAc(b1-6)GalNAc
In short: as §1

[21] = target: Kdn(a2-3)Gal(b1-3)GlcNAc
In short: as §1

[22] = target: Kdn(a2-3)Gal(b1-4)GlcNAc
In short: as §1

[23] = target: Man(a1-2)Man(a1-2)Man(a1-3)Man
In short: as §1

[24] = target: Man(a1-2)Man(a1-2)Man(a1-6)[Man(a1-3)]Man
In short: as §1

[25] = target: Man(a1-2)Man(a1-3)Man
In short: as §1

[26] = target: Man(a1-2)Man(a1-3)[Man(a1-2)Man(a1-6)]Man
In short: as §1

[27] = target: Man(a1-2)Man(a1-3)[Man(a1-2)Man(a1-6)]Man(a1-6)[Man(a1-2)Man(a1-2)Man(a1-3)]Man(b1-4)GlcNAc(b1-4)GlcNAc
In short: as §1

[28] = target: Man(a1-2)Man(a1-3)[Man(a1-6)]Man(a1-6)[Man(a1-2)Man(a1-3)]Man(b1-4)GlcNAc(b1-4)GlcNAc
In short: as §1

[29] = target: Man(a1-2)Man(a1-6)[Man(a1-3)]Man(a1-6)[Man(a1-2)Man(a1-2)Man(a1-3)]Man(b1-4)GlcNAc(b1-4)GlcNAc
In short: as §1

[30] = target: Man(a1-3)[Man(a1-6)]Man
In short: as §1

[31] = target: Man(a1-3)[Man(a1-6)]Man(a1-6)[Man(a1-2)Man(a1-3)]Man(b1-4)GlcNAc(b1-4)GlcNAc
In short: as §1

[32] = target: Man(a1-3)[Man(a1-6)]Man(a1-6)[Man(a1-3)]Man(b1-4)GlcNAc(b1-4)GlcNAc
In short: as §1

[33] = target: Man(a1-3)[Man(a1-6)]Man(b1-4)GlcNAc(b1-4)GlcNAc
In short: as §1

[34] = target: Man(b1-4)GlcNAc
In short: as §1

[35] = target: Neu5Ac(a2-3)Gal
In short: as §1

[36] = target: Neu5Ac(a2-3)Gal(b1-3)GalNAc
In short: as §1

[37] = target: Neu5Ac(a2-3)Gal(b1-3)GalNAc(b1-3)Gal(a1-4)Gal(b1-4)Glc
In short: as §1

[38] = target: Neu5Ac(a2-3)Gal(b1-3)GalNAc(b1-3)Gal(b1-4)GlcNAc
In short: as §1

[39] = target: Neu5Ac(a2-3)Gal(b1-3)GalNAc(b1-4)[Neu5Ac(a2-3)]Gal(b1-4)Glc
In short: as §1

[40] = target: Neu5Ac(a2-3)Gal(b1-3)GalNAc6S
In short: as §1

[41] = target: Neu5Ac(a2-3)Gal(b1-3)GlcNAc
In short: as §1

[42] = target: Neu5Ac(a2-3)Gal(b1-3)GlcNAc6S
In short: as §1

[43] = target: Neu5Ac(a2-3)Gal(b1-3)[Fuc(a1-4)]GlcNAc
In short: as §1

[44] = target: Neu5Ac(a2-3)Gal(b1-3)[Fuc(a1-4)]GlcNAc(b1-3)Gal(b1-4)[Fuc(a1-3)]GlcNAc
In short: as §1

[45] = target: Neu5Ac(a2-3)Gal(b1-3)[Neu5Ac(a2-3)Gal(b1-4)]GlcNAc
In short: as §1

[46] = target: Neu5Ac(a2-3)Gal(b1-3)[Neu5Ac(a2-6)]GalNAc
In short: as §1

[47] = target: Neu5Ac(a2-3)Gal(b1-4)Glc
In short: as §1

[48] = target: Neu5Ac(a2-3)Gal(b1-4)GlcNAc
In short: as §1

[49] = target: Neu5Ac(a2-3)Gal(b1-4)GlcNAc(b1-3)Gal(b1-4)GlcNAc
In short: as §1

[50] = target: Neu5Ac(a2-3)Gal(b1-4)GlcNAc(b1-3)Gal(b1-4)GlcNAc(b1-3)Gal(b1-4)GlcNAc
In short: as §1

[51] = target: Neu5Ac(a2-3)Gal(b1-4)GlcNAc(b1-3)Gal(b1-4)[Fuc(a1-3)]GlcNAc
In short: as §1

[52] = target: Neu5Ac(a2-3)Gal(b1-4)GlcNAc6S
In short: as §1

[53] = target: Neu5Ac(a2-3)Gal(b1-4)[Fuc(a1-3)]GlcNAc
In short: as §1

[54] = target: Neu5Ac(a2-3)Gal(b1-4)[Fuc(a1-3)]GlcNAc(b1-3)Gal
In short: as §1

[55] = target: Neu5Ac(a2-3)Gal(b1-4)[Fuc(a1-3)]GlcNAc(b1-3)Gal(b1-4)GlcNAc
In short: as §1

[56] = target: Neu5Ac(a2-3)Gal(b1-4)[Fuc(a1-3)]GlcNAc(b1-3)Gal(b1-4)[Fuc(a1-3)]GlcNAc(b1-3)Gal(b1-4)[Fuc(a1-3)]GlcNAc
In short: as §1

[57] = target: Neu5Ac(a2-3)Gal(b1-4)[Fuc(a1-3)]GlcNAc6S
In short: as §1

[58] = target: Neu5Ac(a2-3)Gal6S(b1-4)GlcNAc
In short: as §1

[59] = target: Neu5Ac(a2-3)Gal6S(b1-4)[Fuc(a1-3)]GlcNAc
In short: as §1

[60] = target: Neu5Ac(a2-3)GalNAc
In short: as §1

[61] = target: Neu5Ac(a2-3)GalNAc(b1-4)GlcNAc
In short: as §1

[62] = target: Neu5Ac(a2-3)[GalNAc(b1-4)]Gal(b1-4)Glc
In short: as §1

[63] = target: Neu5Ac(a2-3)[GalNAc(b1-4)]Gal(b1-4)GlcNAc
In short: as §1

[64] = target: Neu5Ac(a2-3)[Neu5Ac(a2-6)]GalNAc
In short: as §1

[65] = target: Neu5Ac(a2-6)Gal
In short: as §1

[66] = target: Neu5Ac(a2-6)Gal(b1-4)Glc
In short: as §1

[67] = target: Neu5Ac(a2-6)Gal(b1-4)GlcNAc
In short: as §1

[68] = target: Neu5Ac(a2-6)Gal(b1-4)GlcNAc(b1-2)Man(a1-3)[Neu5Ac(a2-6)Gal(b1-4)GlcNAc(b1-2)Man(a1-6)]Man(b1-4)GlcNAc(b1-4)GlcNAc
In short: as §1

[69] = target: Neu5Ac(a2-6)Gal(b1-4)GlcNAc(b1-3)Gal(b1-4)GlcNAc
In short: as §1

[70] = target: Neu5Ac(a2-6)Gal(b1-4)GlcNAc(b1-3)Gal(b1-4)[Fuc(a1-3)]GlcNAc(b1-3)Gal(b1-4)[Fuc(a1-3)]GlcNAc
In short: as §1

[71] = target: Neu5Ac(a2-6)Gal(b1-4)GlcNAc6S
In short: as §1

[72] = target: Neu5Ac(a2-6)GalNAc
In short: as §1

[73] = target: Neu5Ac(a2-6)GalNAc(b1-4)GlcNAc
In short: as §1

[74] = target: Neu5Ac(a2-8)Neu5Ac
In short: as §1

[75] = target: Neu5Ac(a2-8)Neu5Ac(a2-3)Gal(b1-4)Glc
In short: as §1

B1: CLEC7A (Homo sapiens), Q9BXN2 (protein)
chain: MEYHPDLENLDEDGYTQLHFDSQSNTRIAVVSEKGSCAASPPWRLIAVILGILCLVILVIAVVLGTMAIWRSNSGSNTLENGYFLSRNKENHSQPTQSSLEDSVTPTKAVKTTGVLSSPCPPNWIIYEKSCYLFSMSLNSWDGSKRQCWQLGSNLLKIDSSNELGFIVKQVSSQPDNSFWIGLSRPQTEVPWLWEDGSTFSSNLFQIRTTATQENPSPNCVWIHVSVIYDQLCSVPSYSICEKKFSM
glycan array binding signal (z-score) [1]: 1.09
glycan array binding signal (z-score) [2]: -1.17
glycan array binding signal (z-score) [3]: -0.05
glycan array binding signal (z-score) [4]: -0.366
glycan array binding signal (z-score) [5]: -0.583
glycan array binding signal (z-score) [6]: -0.989
glycan array binding signal (z-score) [7]: -0.106
glycan array binding signal (z-score) [8]: -0.046
glycan array binding signal (z-score) [9]: -0.528
glycan array binding signal (z-score) [10]: 3.29
glycan array binding signal (z-score) [11]: -0.12
glycan array binding signal (z-score) [12]: -0.939
glycan array binding signal (z-score) [13]: -0.578
glycan array binding signal (z-score) [14]: -0.062
glycan array binding signal (z-score) [15]: -0.356
glycan array binding signal (z-score) [16]: -0.613
glycan array binding signal (z-score) [17]: -0.552
glycan array binding signal (z-score) [18]: -0.414
glycan array binding signal (z-score) [19]: -0.026
glycan array binding signal (z-score) [20]: -0.113
glycan array binding signal (z-score) [21]: 0.613
glycan array binding signal (z-score) [22]: 0.64
glycan array binding signal (z-score) [23]: -0.223
glycan array binding signal (z-score) [24]: -0.555
glycan array binding signal (z-score) [25]: -0.75
glycan array binding signal (z-score) [26]: -0.654
glycan array binding signal (z-score) [27]: -0.599
glycan array binding signal (z-score) [28]: -0.061
glycan array binding signal (z-score) [29]: -0.301
glycan array binding signal (z-score) [30]: -0.301
glycan array binding signal (z-score) [31]: 0.549
glycan array binding signal (z-score) [32]: 0.04
glycan array binding signal (z-score) [33]: -0.35
glycan array binding signal (z-score) [34]: -0.755
glycan array binding signal (z-score) [35]: 0.88
glycan array binding signal (z-score) [36]: -0.336
glycan array binding signal (z-score) [37]: -0.398
glycan array binding signal (z-score) [38]: -0.67
glycan array binding signal (z-score) [39]: -0.365
glycan array binding signal (z-score) [40]: -0.367
glycan array binding signal (z-score) [41]: -0.905
glycan array binding signal (z-score) [42]: 1.15
glycan array binding signal (z-score) [43]: -0.793
glycan array binding signal (z-score) [44]: 1.34
glycan array binding signal (z-score) [45]: -0.393
glycan array binding signal (z-score) [46]: -0.477
glycan array binding signal (z-score) [47]: -0.855
glycan array binding signal (z-score) [48]: -0.603
glycan array binding signal (z-score) [49]: -0.189
glycan array binding signal (z-score) [50]: -0.474
glycan array binding signal (z-score) [51]: -0.21
glycan array binding signal (z-score) [52]: -0.22
glycan array binding signal (z-score) [53]: -0.505
glycan array binding signal (z-score) [54]: 0.695
glycan array binding signal (z-score) [55]: -0.396
glycan array binding signal (z-score) [56]: 0.138
glycan array binding signal (z-score) [57]: 0.977
glycan array binding signal (z-score) [58]: 0.663
glycan array binding signal (z-score) [59]: 0.154
glycan array binding signal (z-score) [60]: 0.384
glycan array binding signal (z-score) [61]: -1.15
glycan array binding signal (z-score) [62]: -0.093
glycan array binding signal (z-score) [63]: -0.239
glycan array binding signal (z-score) [64]: 0.984
glycan array binding signal (z-score) [65]: -0.388
glycan array binding signal (z-score) [66]: -0.718
glycan array binding signal (z-score) [67]: -0.657
glycan array binding signal (z-score) [68]: -0.3
glycan array binding signal (z-score) [69]: -0.551
glycan array binding signal (z-score) [70]: 0.335
glycan array binding signal (z-score) [71]: 0.583
glycan array binding signal (z-score) [72]: -0.247
glycan array binding signal (z-score) [73]: -0.252
glycan array binding signal (z-score) [74]: 0.474
glycan array binding signal (z-score) [75]: 0.272
